According to article PMC6919601, “Identification of Plasmodium dipeptidyl aminopeptidase allosteric inhibitors by high throughput screening” (PLoS ONE, 2019):
Hit rate of the full screen: of about 110,000 compounds, about 230 (0.21%) showed an effect of 50% or more. The list shows a part of the results.

Biological target: DPAP1 (Plasmodium falciparum, UniProt Q8IIJ9)
Test: primary screen, percent inhibition; read by cleavage of a fluorogenic dipeptide substrate; higher = more effect of the substance
Design: species or system P. falciparum D10 trophozoite lysates; single well
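Further: 30 min substrate incubation versus DMSO and 10 µM JCP410 controls.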

DPAP1, sequence (Q8IIJ9 whole entry, looked up): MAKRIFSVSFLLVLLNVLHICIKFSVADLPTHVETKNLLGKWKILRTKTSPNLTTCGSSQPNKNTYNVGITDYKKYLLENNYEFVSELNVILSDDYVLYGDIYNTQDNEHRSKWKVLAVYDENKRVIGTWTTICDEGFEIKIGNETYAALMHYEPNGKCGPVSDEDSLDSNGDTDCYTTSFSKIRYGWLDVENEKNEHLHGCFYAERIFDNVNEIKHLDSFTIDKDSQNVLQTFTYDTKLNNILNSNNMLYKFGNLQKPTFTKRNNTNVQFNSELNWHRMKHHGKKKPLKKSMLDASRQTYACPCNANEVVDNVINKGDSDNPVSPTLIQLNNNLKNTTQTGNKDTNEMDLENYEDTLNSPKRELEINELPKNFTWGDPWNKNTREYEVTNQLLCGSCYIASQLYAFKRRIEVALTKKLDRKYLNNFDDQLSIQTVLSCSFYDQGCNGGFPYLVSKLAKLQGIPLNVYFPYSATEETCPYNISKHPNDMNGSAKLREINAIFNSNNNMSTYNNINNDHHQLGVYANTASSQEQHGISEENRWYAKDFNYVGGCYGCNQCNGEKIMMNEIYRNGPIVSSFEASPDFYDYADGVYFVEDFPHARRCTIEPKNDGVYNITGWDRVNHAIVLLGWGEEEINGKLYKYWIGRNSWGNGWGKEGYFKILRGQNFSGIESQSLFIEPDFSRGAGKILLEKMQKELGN

SMILES | % Inhibition @ 10 uM [%]
COc1ccc(N2C(=O)c3cccc4cccc(c34)C2=O)c(OC)c1 | 3.65
OCCN(Cc1ccccc1)Cc1ccc(Cl)cc1Cl | -9.93
CCOc1ccc(-c2[nH]nc(C)c2Oc2ccccc2)c(O)c1 | -5.92
C=C(OCC)c1c(N2CCCCC2)c(=O)c1=O | 2.51
CCOc1cc(/C=C2/NC(=O)NC2=O)cc(Br)c1OCc1cccc(C(=O)O)c1 | 5.37
COc1ccc(C2C(C#N)=C(N)N(c3c(F)cccc3F)C3=C2C(=O)CC(C)(C)C3)cc1OC (stereo not drawn) | 1.82
COc1ccc(NC2=NC(=O)/C(=C\c3ccc(N(C)C)cc3)S2)cc1 | 0.431
N#CCCS(=O)(=O)c1ccc(Cl)cc1 | -0.0369
CC(C)C(C(=O)O)N1C(=O)C2C3CC(C2C1=O)C1C(c2cccs2)c2sc(O)nc2SC31 (stereo not drawn) | -3.52
CCN(CC)CCNC(=O)c1ccc2nc(N3CCOCC3)sc2c1 | -0.637
CCCNC(=O)c1nc(C)c(C)nc1C(=O)Nc1ccc(C)cc1 | -1.96
O=C(c1ccc2c(c1)sc1nc(-c3ccccc3)cn12)N1CCN(Cc2ccc3c(c2)OCO3)CC1 | 25
N#CCNC(=O)[C@H](CC1CCCCC1)NC(=O)c1sccc1Br | 1.35
Cc1c(Cl)cccc1NC(=O)c1cccnc1 | 0.135
C#CCSc1nc2c(c(=O)n1Cc1ccccc1)C1(CCCC1)Cc1ccccc1-2 | -1.99
Clc1ccc(CN2CCN(c3ncccn3)CC2)c(Cl)c1 | -5.41
CCOc1ccc(C2c3c(oc4ccc(C)cc4c3=O)C(=O)N2CCCN2CCOCC2)cc1OC (stereo not drawn) | 0.628
COc1ccccc1CN1CCN(c2ccccc2)CC1 | -5.5
COCCN1C(=O)c2cccc3c(Cl)ccc(c23)C1=O | 5.43
CC1CCN(CC(C)CNC(=O)c2cc(-c3ccccn3)nc3ccccc23)CC1 (stereo not drawn) | -0.519
Cc1cccc(OCc2nc(C#N)c(N3CCN(c4ccccc4)CC3)o2)c1 | -3.16
Fc1ccc(CN2CCN(c3cccc(Cl)c3)CC2)cc1 | -3.71
CCOc1cc(/C=C(\C#N)c2nn(-c3ccccc3)c(N)c2C#N)cc(Br)c1OC | 1.13
COc1ccc(CCNCC2CCCO2)cc1 (stereo not drawn) | 0.472
Cc1cccc(OCC(=O)Nc2ccc(S(=O)(=O)Nc3ccc(C)cc3C)cc2)c1 | -4.14
Cc1csc2nc(CNS(=O)(=O)c3ccc(Oc4ccccc4)cc3)cn12 | 2.57

SMILES | % Inhibition @ 10 uM [%]
O=C(Nc1cccnc1)c1cc2nc(-c3ccc(Br)cc3)cc(C(F)(F)F)n2n1 | 2.4
Cc1c(C(=O)Nc2cccc3ccccc23)cnn1-c1ccccc1 | 0.686
Cc1ccc(NC(=O)c2cccs2)cc1NC(=O)c1cccs1 | -4.16
COc1ccc(-c2oc3ccccc3c(=O)c2O)cc1 | -0.615
Cc1c(C(=O)Nc2ccc(S(=O)(=O)N3CCCCC3C)cc2)oc2ccccc12 (stereo not drawn) | 2.73
CNc1nc2ccc(C(=O)c3ccccc3)cc2n2cnnc12 | -7.28
CCN(CC)CCCNC(=O)C1CCN(c2nnc(N3CCCC3=O)s2)CC1 | 5.23
COc1ccc(CCn2cc3c(c2-c2ccc(Cl)cc2)c(=O)n(C)c(=O)n3C)cc1OC | -3.12
NC(=O)CSc1nc2ccccc2c(=O)n1Cc1ccccc1 | -7.55
NC(=O)C(=O)Nc1nc(C23CC4CC(CC(C4)C2)C3)cs1 | 7.97
Cc1nnc2c(N3CC(=O)N(CCc4ccccc4)C(=O)C3)nc3ccccc3n12 | -1.67
COc1ccc2c(C)c(CC(=O)N3CCCCC3)c(=O)oc2c1 | -2.57
CC1(C)NC(=S)N(c2ccccc2)N1 | -3.52
O=C(CSc1nc(O)c2cnn(-c3ccccc3)c2n1)N1CCC(Cc2ccccc2)CC1 | -3.35
c1ccc2c(c1)CCN(c1ncnc3c1nnn3Cc1cccc3ccccc13)C2 | -0.0678
O=C(Nc1ccccc1C(F)(F)F)C1CC(=O)N(c2ccc(Br)cc2)C1 (stereo not drawn) | -5.13
CCOC(=O)c1c(C)[nH]c(C)c1S(=O)(=O)N(C)CC(=O)N1CCc2ccccc2C1 | -4.55
CC(=O)Nc1cccc(-c2cn3ccsc3n2)c1 | -4.03
CC12CN3CC(C)(CN(C1)C(=O)c1ccccc1C3=O)C2=O | 2.94
Cc1cccc(-n2c(S)nnc2CN2CCN(C)CC2)c1 | -4.21
CC(C)c1ccc(/C=C2\C(=O)NC(=S)N(c3ccc(Cl)cc3)C2=O)cc1 | 7.55
O=C(CN1Cc2ccccc2C1=O)N1CCC(Cc2ccccc2)CC1 | 3.12
O=C(NCC1(c2ccccc2)CCCC1)C1CCCN1S(=O)(=O)c1cccc2nsnc12 (stereo not drawn) | 2.93
CC(C)(C)c1ccc(OCCCC(=O)O)cc1 | 0.13
CC1CCCN(Cc2nc3c(c(=O)n(C)c(=O)n3C)n2CC(=O)c2ccccc2)C1 (stereo not drawn) | -8.06
